Measurements from paper PMC4336329 (PLoS ONE, 2015).
Among all 310,000 compounds or so, about 2,200 (0.71%) showed an effect of 50% or more. The effect is printed as a negative number. The list shows a part of the results.

target: human ether-à-go-go-related gene (hERG) potassium channel (human, UniProt Q12809); test: primary screen, population patch clamp on CHO cells stably expressing hERG
Sequence (Q12809 whole entry, looked up): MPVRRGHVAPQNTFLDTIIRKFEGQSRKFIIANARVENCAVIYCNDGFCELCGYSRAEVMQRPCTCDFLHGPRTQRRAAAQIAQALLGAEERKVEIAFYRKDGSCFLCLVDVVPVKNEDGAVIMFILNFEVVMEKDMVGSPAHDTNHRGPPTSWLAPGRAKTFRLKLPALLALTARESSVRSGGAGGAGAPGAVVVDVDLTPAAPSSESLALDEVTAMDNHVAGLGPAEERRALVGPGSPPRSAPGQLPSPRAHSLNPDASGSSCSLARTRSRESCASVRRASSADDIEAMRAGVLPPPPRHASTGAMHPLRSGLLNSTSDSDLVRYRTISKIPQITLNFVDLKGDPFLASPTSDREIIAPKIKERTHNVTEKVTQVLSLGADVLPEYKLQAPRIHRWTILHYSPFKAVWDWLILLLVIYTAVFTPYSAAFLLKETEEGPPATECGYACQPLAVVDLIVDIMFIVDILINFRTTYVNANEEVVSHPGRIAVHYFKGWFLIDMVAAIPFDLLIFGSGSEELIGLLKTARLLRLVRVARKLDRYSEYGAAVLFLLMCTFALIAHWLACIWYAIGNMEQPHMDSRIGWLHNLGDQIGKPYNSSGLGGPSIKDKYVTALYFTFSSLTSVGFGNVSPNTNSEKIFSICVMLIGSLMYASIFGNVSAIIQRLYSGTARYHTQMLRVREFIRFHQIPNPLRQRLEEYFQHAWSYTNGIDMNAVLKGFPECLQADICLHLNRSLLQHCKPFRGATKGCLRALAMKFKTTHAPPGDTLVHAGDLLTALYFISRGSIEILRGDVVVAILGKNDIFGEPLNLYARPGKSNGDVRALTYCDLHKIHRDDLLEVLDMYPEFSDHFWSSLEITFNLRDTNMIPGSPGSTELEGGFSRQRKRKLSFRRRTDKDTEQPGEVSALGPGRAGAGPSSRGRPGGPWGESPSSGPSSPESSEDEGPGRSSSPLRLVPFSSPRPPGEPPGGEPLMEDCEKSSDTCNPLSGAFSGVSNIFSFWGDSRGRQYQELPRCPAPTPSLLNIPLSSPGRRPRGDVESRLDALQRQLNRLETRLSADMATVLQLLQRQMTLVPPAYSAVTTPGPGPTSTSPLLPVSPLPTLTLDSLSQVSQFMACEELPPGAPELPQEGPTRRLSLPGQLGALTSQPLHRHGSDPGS

Row | Compound | hERG current change (%, negative = inhibition) at 1uM
1 | CCN1CCc2c(sc(NC(=O)c3ccc(S(=O)(=O)N4CC(C)OC(C)C4)cc3)c2C(N)=O)C1 (stereo not shown) | -6.31%
2 | CC(=O)c1ccc(OC(C)C)c(CN2CCCCC2)c1.Cl | 8.34%
3 | CN1CCN(NC(=O)c2ccc(Cl)c(S(=O)(=O)Nc3ccc(Cl)cc3)c2)CC1.Cl | 2.6%
4 | Cc1ccc(-n2c(=O)cc(N3CCN(Cc4ccccc4)CC3)[nH]c2=O)cc1 | 10.3%
5 | CCOc1ccc(C)cc1-n1nc2ccccc2n1 | 5.64%
6 | CCN1C(=NCc2ccccc2)N[C@@H](c2ccccc2)[C@H](C(=O)OC)[C@H]1C | 9.98%
7 | O=C(CSCC(=O)NC1CCCC1)Nc1ccccc1 | 7.25%
8 | Cc1cc(N2CCN(C)CC2)nc2ccc(NC(=O)CCC(=O)NCCC(C)C)cc12 | 13.4%
9 | Cc1cc(C)cc(NC(=O)COC(=O)c2cc(=O)[nH]c(=O)[nH]2)c1 | 8.97%
10 | COc1ccc2c(c1)c(C(=O)CN1CCOCC1)c(C)n2C | -1.13%
11 | CNC(=S)N1CCc2cc(OC)c(OC)cc2C1COc1ccc(OC)cc1 (stereo not shown) | -2.52%
12 | COc1ccc(Cl)cc1N1C(=NC(=O)C2CCCO2)SC2CS(=O)(=O)CC21 (stereo not shown) | 16.8%
13 | COc1ccc(CN2CCN(C(=O)c3ccc(F)cc3)CC2)c(OC)c1.O=C(O)C(=O)O | -2.34%
14 | COc1ccccc1-c1ccc(=O)n(CC(=O)NCc2ccco2)n1 | 19%
15 | Cc1ccccc1CN1C(=O)[C@H]2Cc3c([nH]c4ccccc34)C(C)(C)N2C1=O | 17.1%
16 | Cc1ncoc1C(=O)N1CCCC(CCC(=O)NCc2ccccc2F)C1 (stereo not shown) | -8.71%
17 | CCOC(=O)c1c(C)[nH]c(C(=O)C(C)OC(=O)c2cnc(C)cn2)c1C (stereo not shown) | 4.25%
18 | COc1cc(-c2nc3ccc(C)cn3c2NCc2ccccc2)ccc1SC1CCCCC1.O=C(O)C(F)(F)F | 16.1%
19 | C/C(=N\NC(=S)NC(C)C)c1cccc([N+](=O)[O-])c1 | -13.9%
20 | Cc1cnc(-c2nnc(N(C)C(=O)C3CCOC3)s2)cn1 (stereo not shown) | 8.37%
21 | CN(C)S(=O)(=O)c1ccc(NC(=O)COC(=O)c2n[nH]c3ccccc23)cc1 | 6.21%
22 | CCN(CC)CCN(C(=O)c1ccc2c(c1)OCCO2)c1nc2ccc(C)cc2s1.Cl | -1.02%

Row | Compound | hERG current change (%, negative = inhibition) at 1uM
23 | COCC(=O)NCCSc1c(C)[nH]c2ccccc12 | 9.84%
24 | O=C(COC(=O)c1cccnc1Cl)Nc1cccc(S(=O)(=O)N2CCCCC2)c1 | 4.13%
25 | CCCCNC(=O)C1CCN(C(=O)C2CCN(S(=O)(=O)c3ccc(C)cc3)CC2)CC1 | 8.91%
26 | CC1CN(C(=O)/C(C#N)=C2\N=C(NC(=O)c3ccc(F)cc3)c3ccccc32)CC(C)O1 (stereo not shown) | 15.3%
27 | CCCNC(=S)N1CC2(C)CN(C(=O)C(=O)OCC)CC(C)(C1)C2=O | 8.3%
28 | COC(=O)[C@H](Cc1ccccc1)NC(=O)Cn1ccc(NC(=O)OCc2ccccc2)nc1=O | 6.5%
29 | O=S(=O)(c1ccc(Cl)cc1)N1CCN(c2ncccn2)CC1 | 2.86%
30 | Cc1c(N=c2scc(-c3ccccc3)n2C)c(=O)n(-c2ccccc2)n1C | -2%
31 | Cl.OC(CN1C2=NCCCN2c2ccccc21)c1ccc2c(c1)OCO2 (stereo not shown) | -68.6%
32 | COc1ccc(/C=C(/NC(=O)c2ccco2)C(=O)Nc2ccc(C(C)=O)cc2)cc1 | 20.9%
33 | COc1cccc2cc(C(=O)CS(=O)(=O)c3ccc(Cl)cc3)c(=O)oc12 | -3.24%
34 | Cc1csc(NC(=O)CSc2nnc(-c3ccncc3)n2C)n1 | 1.39%
35 | COCCC(C(=O)Oc1c(C(C)(C)C)cc(C)cc1C(C)(C)C)c1ccccc1 (stereo not shown) | 13.1%
36 | CN(NC(=O)c1cccc(Cl)c1)c1nc(-c2ccccc2)nnc1C(F)(F)F | 10.5%
37 | CCOc1ccc(S(=O)(=O)NCCC(=O)NC2CCN(Cc3ccccc3)CC2)cc1 | 2.49%
38 | O=C(NCc1ccc(F)cc1)C1CCC(CNc2c(N3CCOCC3)c(=O)c2=O)CC1 (stereo not shown) | 6.89%
39 | CCOP(=O)(OCC)C(NC(=O)CN1C(=O)c2ccccc2S1(=O)=O)C(Cl)(Cl)Cl (stereo not shown) | 12.8%
40 | N#CCC(=O)N/N=C/c1ccc(N2N=C(c3ccccc3)CC2c2ccccc2)cc1 (stereo not shown) | 22.5%
41 | Cc1ccc(OC(C)C(=O)Nc2ccc(S(=O)(=O)Nc3nccs3)cc2)cc1 (stereo not shown) | -8.26%
42 | COc1cccc(N/C(SCc2ccccc2F)=C(/C#N)C(=O)NCc2cccs2)c1 | 12.6%
43 | CCN(C(=O)COC(=O)/C=C/c1cccc(Cl)c1)c1c(N)n(Cc2ccccc2)c(=O)[nH]c1=O | 10.6%
